# In the supplement of paper PMC11417369:
# The list shows a part of the results.
# System: PfAP2-HC AP2 domain (GST-tagged)
# Assay: gcPBM binding intensity (ln(normalized median fluorescence intensity)); higher = stronger DNA binding
# In short: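 The highest Masliner-normalised natural-log median intensity across replicate spots of either probe orientation is reported as binding intensity. GST-tagged P. falciparum DNA-binding domains expressed in E. coli were applied for 1 h to an Agilent 4 × 180k array of primer-extended double-stranded 36-bp intergenic genomic probes plus negative controls, and bound protein was detected with Alexa488 anti-GST antibody and scanned at 488 nm.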
row,Sequence,gcPBM binding intensity (ln)
1,ATACATATCTATAATACACACATAAATGTAACATTT [CACACA_site7621],10
2,ACATATTATAGGAATACACACAAAAACTTATCGGTA [CACACA_site7587],10.2
3,ATTATATATATTGGAGTGCATATATAGTATTTTATA,9.57
4,ATAGAAATCTATTGTGATTATTATTTTATTTTTAGT [XGTACX_negctrl_site605],9.58
5,TGAAGATAAAAATATGCACACATATATATATATATA [CACACA_site8027],10.1
6,CATAAAAATGAACATACACACATATATTTATTTATA [CACACA_site7222],9.84
7,TCCGTATAATTTTGCACACGAATATAAATTTGATAA [CACACA_site136],9.62
8,ATTATATCACTGTGTTGTACTTCTTATATAAAAATA [XGTACX_site2333],9.68
9,ACATATCGGGTGCATTAACACACATTTATTTGAATA [CACACA_site8736],9.77
10,ATATTACACAGATATGCACACATTGTAGTTATTTAT [CACACA_site5454],9.97
11,AAAAAGGAAATTTACACACACATATAACATACATTA [CACACA_site7534],10.5
12,AATTATAATAAATAACGTACAAAAAATAAATTATTT [XGTACX_site3627],9.74
13,ATAAAAATAAAATGGACACACATATATACATATTTG [CACACA_site3277],10.2
14,ATAAGCGAATATATATCACACACAAAAAAATCAGAC [CACACA_site8657],10.3
15,TATATATTCATGTGTACACACAAAAAAAAATAAAGT [CACACA_site2207],10.2
16,TTTTTTTTTGATATTTGTACTTAAGTAAATATTATA [XGTACX_site3843],9.51
17,ATATTAGGGTCATGAACACACAAAAAAAAAAAAAAA [CACACA_site937],9.55
18,TATCTTTTATAAGTGACACACATAAATATTTAAATT [CACACA_site833],9.6
19,GCTATCATATCATGTTGTACACAACCTCAAAATGAA [XGTACX_site8757],9.64
20,AATAAGTGTTGATTCTTAAAATGACCATATAATAAT [TGCATGCA_negctrl_site221],9.66
21,TCATATTTACAAAAAGGTATTAATAAATAAAATATT [CACACA_negctrl_site259],9.53
22,CGTTTATTAAACTTGACACACACACCCCCACATATA [CACACA_site8151],10.6

row,Sequence,gcPBM binding intensity (ln)
1,AATCGATAACAATGTAGTACCAGAAAAATAAATATT [XGTACX_site8501],9.92
2,TATATATATATATATGCATGCCATATGATATATATA [TGCATGCA_site109],9.58
3,TTTAATTCTTATATTTGTACAGATTCATAATTAAAT [XGTACX_site7465],9.41
4,CATGTCAAAATTATACGTACATATATAAGTTCCATT [XGTACX_site6331],9.65
5,AAAAAAAAATAAAAAAGTACATTCATTTTATAAGAT [XGTACX_site3507],9.6
6,ATCCTCTTTTTAAGTTGTACAGGGTCGAAAAAAAAA [XGTACX_site6852],9.26
7,GATTATTATTATAAGGGTACAAATATTTAATAAAAA [XGTACX_site7144],9.48
8,TTTTTTCAAATTATTCGATATGTAAAAAAATAAAAT [GTGCAC_negctrl_site241],9.23
9,AAATATTTGTGTGGTTGTACTATAATGATAAAAATA [XGTACX_site7703],9.88
10,TTTTTTTTTTTTGAGTGTACAAGATTGTTGTTCCAA [XGTACX_site6120],9.17
11,GGTTTGAATTTTTAAGTGCATATAACATAAATGAAA,9.38
12,TTATATTATATATATATTATATATATGTATGCATAA [TGCATGCA_negctrl_site481],9.37
13,CATACATACAAACACACACACATATATATATATATA [CACACA_site43],10.2
14,AGATAGCTATTAAAAAGTACAAAAAAATATATATAT [XGTACX_site6289],9.71
15,ATAAATACAGATATTACACACTTCTTATTCTAAGAA [CACACA_site5640],9.64
16,TATTTTATATAAAGGTGTACTTATACAAAAATATAT [XGTACX_site7435],9.54
17,TATACAGGAATATTTTTACACACTAATAATTATAAA [CACACA_site8477],9.67
18,TATTTACAACAAATTTAATTATTTTTAACTTATAAA [GTGCAC_negctrl_site259],9.23
19,TCCCAATTTCTATCCTGTACAGACATAAATATATAC [XGTACX_site5937],9.73
20,AAGTAATTTGTTGACACACACACACGCATACCTATA [CACACA_site7140],10.3
21,TTTTGAAATTTTTGTGTTTTTCCTTTTTATTTTATA [CACACA_negctrl_site1740],9.62
22,ATAAAGATTAATAAAATAAAATTCCGCAAACATATA [CACACA_negctrl_site244],9.7

row,Sequence,gcPBM binding intensity (ln)
1,ATAAATCCATGTAACTGTACTTTTTTTTTTTTTTTT [XGTACX_site7373],9.57
2,TTTTTTTTCTAAATTATATGAAAATATATGTTATGT [GTGCAC_negctrl_site85],9.57
3,TACATAAACATTTATACACACATTATAAATACATAT [CACACA_site4386],10
4,ACAATTTTAAAATGAACACACATGTTTTTCTTACTT [CACACA_site1014],9.92
5,ATTTTCTATTTTATTTGTACGTAATTTAATTTTTTT [XGTACX_site3609],9.89
6,ACAAATACTAACAACGCATGTAAGCCTACAATAAAT [TGCATGCA_site551],9.81
7,GCTCCTTTTACCATCGCACACGATAAAAAAAAATAA [CACACA_site3255],9.67
8,ATTATATATATATATATATATATATATATATTATAT [CACACA_negctrl_site234],9.65
9,AATGTAATATAAATATGTACATATAAACTATATATA [XGTACX_site6871],9.81
10,ACTTATGATTTATTTTGTACATATATACTATTCCTG [XGTACX_site5275],9.94
11,GTTTTAAAACAAATATGTACACATAATATAGGAAAG [XGTACX_site1803],9.88
12,TCAAGAATTTTAAAGAGTACATAAAACAATAATATA [XGTACX_site3923],9.53
13,CAAAAATAACGAGTCAAACACACATATATATATATA [CACACA_site2038],9.83
14,AAAGGGATAACACCAAAAAAAATAAAAATAAAAATA [GTGCAC_negctrl_site680],9.76
15,CAACACTTTCAAAAATGTACGTACAAATGTATTTTA [XGTACX_site6713],9.64
16,AGTTTCCATATGAGGTGTACATATATAATTTATTAT [XGTACX_site2369],10.1
17,ACAAAATAAAGACACACACACAAACACAAAAAAATA [CACACA_site7568],10.6
18,ATGCGTATACTAAGAACACACAAGTTACTTGGTGTT [CACACA_site1625],9.72
19,ATTAATGATTTTTGTTGTACATTATTAATTTACATT [XGTACX_site544],9.73
20,TATTTTATATTTCATTTGTTATTTTTCTTGGTTCTA [CACACA_negctrl_site33],9.71
21,CATACATACATACATACACACATACATATGTATTTA [CACACA_site5384],9.99
22,AAAATATAATATATTGCACACAAAAAGTGAATTATT [CACACA_site8489],9.92

row,Sequence,gcPBM binding intensity (ln)
1,TACCATTATTTTAAGTGTACATACTAATTTATATAT [XGTACX_site6548],9.79
2,TCTTTCTATTTATAATGTACTCAAAATTATTCTATA [XGTACX_site4867],9.59
3,AAATTGTGTGAAATATATTAATATTATTATTATTAT [TGCATGCA_negctrl_site189],9.63
4,TTTTACCACTAAAAATGTACAAAAAAAAAAAAAAAA [XGTACX_site4226],8.91
5,CCTTGCATTTATTATACACACACAAAAAAATATATA [CACACA_site7964],9.86
6,TATGCACCCAGACACACACACACAACTAAAAAATAA [CACACA_site2567],10.5
7,TTTGTAGATTTTGTAACACACACATATATATACATA [CACACA_site8757],10
8,TTGCAAATATATGGTTGTACTCAAAAAAAAAAAAAA [XGTACX_site6975],9.17
9,ATAACAAAATAAAACACACACACAAATGTACATATA [CACACA_site2425],10.4
10,CATATACACCAACACACACACACACCCACAAAAAAA [CACACA_site496],11.3
11,AAATAAATAATTTAATGTACATATATAATATATATA [XGTACX_site1831],9.55
12,TATTTTTCCATATGCACACACACCGTATATATAATA [CACACA_site1127],10.7
13,AATAAAAAAATAGAAACACACATTAAAAAAAATAAA [CACACA_site1333],10.1
14,ATGATATATAGACACACACACATATTTATATACATT [CACACA_site6404],10.9
15,TAAATAAAGTATAATGCATGCTATTATAATATTAAT [TGCATGCA_site825],9.74
16,CACTTTATACGTAATTGTACTTTTTCTTTTTTTTAT [XGTACX_site3175],9.83
17,ACTTACTAATTAATGGGTACATACACACATATATAC [XGTACX_site1362],9.95
18,TATTCAAAGAAAGACAGTACGTGTAGCAAACAACCT [XGTACX_site4218],9.86
19,ATTTTTTTTTTTTTTTTTTTTTTTTAGATTAAGAAA [CACACA_negctrl_site1272],9.16
20,AAATAAAATAAAATAAAATAAAATTCTTTGATACCT [TGCATGCA_negctrl_site604],9.61
21,TATAATTATTTTTTTCTAAATATTATAAGGTATTCA [GTGCAC_negctrl_site205],9.34
22,TACATATAATATATTGCACACGTCAGAATAATATAG [CACACA_site1744],9.75
